# The supplement of paper PMC6206098
# ± gives the uncertainty stated by the source. Shown are siRNA guide strands that differ only in the seed, positions 2 to 7.
# How the values were obtained:
# [1] = system: HeyA8; test: cell viability relative to lipid-only control; higher = less toxic; settings: concentration: 10 nM; 96 h; Homo sapiens
# [2] = system: M565; test: as above; settings: concentration: 10 nM; 96 h; Mus musculus
# [3] = system: H460; test: as above; settings: concentration: 10 nM; 96 h; Homo sapiens
# [4] = system: 3LL; test: cell viability relative to siNT1 control; HeyA8 human ovarian and H460 human lung cancer; M565 mouse liver and 3LL mouse lung cancer; siNT1 is a non-toxic control siRNA; higher = less toxic; settings: concentration: 10 nM; 96 h; Mus musculus;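 further: Luminescence-based viability of cells reverse transfected in 384-well plates with lipid-complexed siRNAs built on a non-toxic 19mer backbone whose passenger strand carries 2′-O-methyl groups at positions 1 and 2, triplicates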
# 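Wherever cell viability relative to lipid-only control is given: reverse lipid transfection in 384-well plates, in triplicate, of duplexes on a non-toxic 19mer backbone with passenger strand 2′-O-methylated at positions 1 and 2, luminescence viability read-out.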
Sequence,cell viability [1],cell viability [2],cell viability [3],cell viability [4]
UACGGGAACAUGUAAACCAAA,78 ± 9.6%,59.8 ± 24%,80.6 ± 25%,74.3 ± 4.4%
UCGUGGGACAUGUAAACCAAA,30.4 ± 2.9%,24.6 ± 3.7%,28.4 ± 2.1%,24.6 ± 3.8%
UUACAAUACAUGUAAACCAAA,95.1 ± 2.3%,74.8 ± 2.1%,83.8 ± 8.5%,85.2 ± 14%
UGACUCAACAUGUAAACCAAA,47.7 ± 3.2%,18 ± 5.2%,62.5 ± 5.9%,48.7 ± 5.7%
UUCUUCAACAUGUAAACCAAA,72.6 ± 2.8%,132 ± 28%,62.6 ± 6.5%,62.1 ± 12%
UUAAUGAACAUGUAAACCAAA,85 ± 12%,55.6 ± 8.6%,68 ± 5.3%,59 ± 5.3%
UCUAUUUACAUGUAAACCAAA,87.3 ± 5.8%,70.1 ± 16%,74.6 ± 13%,96.9 ± 15%
UGCUGAUACAUGUAAACCAAA,47.7 ± 5%,8.4 ± 1.4%,69.2 ± 11%,13.9 ± 6.5%
UAGUCCCACAUGUAAACCAAA,32.2 ± 3.4%,3.23 ± 0.65%,30.8 ± 8.4%,3.71 ± 0.28%
UUCAAUAACAUGUAAACCAAA,96.9 ± 14%,103 ± 21%,62.5 ± 1.5%,100 ± 21%
UUGCUCUACAUGUAAACCAAA,65.4 ± 3.4%,21.4 ± 7.3%,53.1 ± 5.7%,37.1 ± 4.2%
UUAAGCCACAUGUAAACCAAA,52 ± 6.5%,34.9 ± 6%,44.6 ± 4.5%,6.94 ± 0.38%
UCGAACGACAUGUAAACCAAA,83.7 ± 5.2%,62.7 ± 5%,79.6 ± 18%,90.8 ± 16%
UGGAAGGACAUGUAAACCAAA,50.4 ± 5%,15.3 ± 1%,41.5 ± 4.1%,25.2 ± 5.2%
UCUGUUGACAUGUAAACCAAA,83.9 ± 3.8%,52.2 ± 4.5%,51.2 ± 3.8%,100 ± 22%
UAGCCCUACAUGUAAACCAAA,48.5 ± 3.9%,17.9 ± 1.9%,46.8 ± 4.2%,18.3 ± 2.2%
UGAUCGCACAUGUAAACCAAA,35.3 ± 2.4%,20.5 ± 6.8%,28.7 ± 1.1%,26.3 ± 4.4%
UUCUCGAACAUGUAAACCAAA,94.4 ± 4.3%,84.5 ± 12%,62.7 ± 5.7%,86.5 ± 8.7%
UACCACGACAUGUAAACCAAA,91.2 ± 2.1%,35.4 ± 5.9%,49.8 ± 9.5%,76.1 ± 5.2%
UCAGCUCACAUGUAAACCAAA,89.5 ± 3.7%,37.8 ± 7.7%,69.1 ± 11%,74.1 ± 9.8%
UGGAGCCACAUGUAAACCAAA,5.4 ± 1.2%,8.84 ± 1.1%,11.6 ± 1%,10.8 ± 6.5%
UGACGAAACAUGUAAACCAAA,22.6 ± 1.9%,52.6 ± 12%,63.4 ± 9.2%,96 ± 13%
